The source gives no read counts; variants with many changes may rest on few reads.

Sequences and labels used below:
B1: LINE1-mini (parent)
chain: GGCAGAGCUCAACACAGCGUGGCAAAGUGGCUGUGGCUAGACUGCC

In this series the parent is B1. Put plainly: self-cleavage, relative activity (ratio to wild type); higher = more cleavage; in vitro, sequencing; the parent is a self-cleaving ribozyme.
On to GACAGAGCUCAACACAGCGUAGCAAACUGGCUGUGGCUAGACAGCC [G2A G21A G27C U43A], for which the self-cleavage is 0.28.

As for GACAGAGCUCAACACACCGUGGCAAAGUGGCUGUGGCUAGACUGAC [G2A G17C C45A], the self-cleavage amounted to 0.3.

With GACAGAGCUCAACACAGCGUGACAAGGUGGGUGUGGCUAGACUGCC [G2A G22A A26G C31G], the self-cleavage worked out at 0.15.

In the case of GACAGAGCUCAACACAGCUUAGCAAAGUGGCUGUGGCUAGACUGCC [G2A G19U G21A], the self-cleavage was 0.28.

For the variant GACAGAGCUCAACACAGCGUGGCAAAGUUGAUGUGGCUAGUCUGCC [G2A G29U C31A A41U], the self-cleavage came to 0.08.

In the case of GACAGAGCACAACACACCGUGGCAAAGUGGCUGUGGCUAGACUGCC [G2A U9A G17C], the self-cleavage amounted to 0.26.

As for GACAGAGCUCAACACAGCAUGGCAGAGUGGCUGUCGCUAGACUGCC [G2A G19A A25G G35C], the self-cleavage came out at 0.02.

Regarding GACAGAGCUCAACACAGCGUGGCAAAGUGUCUGUGGCUAGAGUGCC [G2A G30U C42G], the self-cleavage came out at 0.02.

With GACAGAGCUCAACACAGCGUGGCAAAGUGGCUUUGGCUACACUGCC [G2A G33U G40C], the self-cleavage is 0.2.

Turning to GACAGAGCUCAACACACACUGGCAAAGUGGCUGUGGCUAGACUGCC [G2A G17C C18A G19C], the self-cleavage was 1.09.

Regarding GACAGAGCCCAACACAGCGUGGCAGAGUGGCUGUGGCUACAAUGCC [G2A U9C A25G G40C C42A], the self-cleavage is 0.08.

As for GACAGAGCUCAACACAGCGUGGCAAAGUGGCUGUGGCUACACUGGC [G2A G40C C45G], the self-cleavage came to 0.31.

On to GACAGAGCUCAACACAGCAUGGCAAAGUGGCUGUGUCUAGACUGCC [G2A G19A G36U], for which the self-cleavage turned out to be 0.17.

As to GACAGAGCUCAACACACCCUGGCAAAGUGGCUGUGGCUAGACUGCC [G2A G17C G19C], the self-cleavage was found to be 0.24.

Consider GACAGAGCUCAACACACCGUGGCAAAGUGGCUGGGGCUAGACUGCC [G2A G17C U34G], for which the self-cleavage was determined as 0.11.

Regarding GACAGAGCUCAACACAGCGUAGCAAUGUGGCUGUGGCUAGACUGCC [G2A G21A A26U], the self-cleavage is 0.33.

As to GACAGAGCUCAACACAGCGUGGCAAAGUGGCUGUUGGUACCCUGCC [G2A G35U C37G G40C A41C], the self-cleavage came to 0.83.

Regarding GACAGAGCUCAACACAGCGUGACAAAAUGGCUGUGGCUAGACUGCC [G2A G22A G27A], the self-cleavage is 0.31.

Regarding GACAGAGCACAACACAGGGUGGCAAAGUGGCUGUGGCUAGACUGCC [G2A U9A C18G], the self-cleavage is 0.19.

Take GACAGAGCCCAACACAGGGUGGCAAAGUGGCUGUGGCUAGACUGCC [G2A U9C C18G]: the self-cleavage amounted to 0.09.

With GACAGAGCUCAACACAGCAUGGCAAGGUGGCUGUGGCUAGACUGCC [G2A G19A A26G], the self-cleavage was 0.95.

Consider GACAGAGCUCAACACAGCGUGGCAAAUUGGCUGUGGCUAGACUGGC [G2A G27U C45G], for which the self-cleavage amounted to 0.45.

In the case of GACAGAGCGCAACACAUCGUGGCAAAGUGGCUGUGGCUAGACUGCC [G2A U9G G17U], the self-cleavage stood at 0.24.

With GACAGAGCUCAACACAGCCUCGCAAAGUGGCUGUGGAUAGACUGCC [G2A G19C G21C C37A], the self-cleavage was 0.06.

For the variant GACAGAGCACAACACAGCUAGGCAAAGUGGCUGUGGCUAGACUGCC [G2A U9A G19U U20A], the self-cleavage was found to be 0.13.

As to GACAGAGCUCAACACAUCGUGGCAAGGUGGCUGUGGGUAGCCUGCC [G2A G17U A26G C37G A41C], the self-cleavage was determined as 0.08.

For the variant GACAGAGCUCAACACAGCGUGGCAAAAGGGCUGUGCCUAGACUGCC [G2A G27A U28G G36C], the self-cleavage was found to be 0.07.

Regarding GACAGAGCUCAACACAGCGUGGCAAAUUUGCUGUGGCUAGAUUGCC [G2A G27U G29U C42U], the self-cleavage worked out at 0.2.

For the variant GACAGAGCGCAACACAUCGUGGCUAAGUGGCUGUGGCUAGACUGCC [G2A U9G G17U A24U], the self-cleavage worked out at 0.32.

With GACAGAGCUCAACACAGCGUGGCAAAGUGGCUUUGGCUAGACUGCG [G2A G33U C46G], the self-cleavage was determined as 0.11.

With GACAGAGCUCAACACAACGUGGCAAAGUGGCUGUAGCUAGACUGCC [G2A G17A G35A], the self-cleavage amounted to 0.22.

For GACAGAGCUCAACACAGCGUGGCAAAGUGGCUGUGGCUACCCUGCC [G2A G40C A41C], the self-cleavage is 0.09.

For GACAGAGCUCAACACAGCGUGUCAAUGUGGCUGUGGCUAGACUGCC [G2A G22U A26U], the self-cleavage was found to be 0.46.

GACAGAGCUCAACACAGCGUGGCAAAGUUGCUGUGCCUAGACUGCC [G2A G29U G36C]: the self-cleavage is 0.12.

Regarding GACAGAGCUCAACACAGCGUGGCAAAGUCACUUUGGGUAGACUGCA [G2A G29C G30A G33U C37G C46A], the self-cleavage came out at 0.11.

Consider GACAGAGCUCAACACAUCGUGGCCAAGUGGCUGUGGCUAGACUGCA [G2A G17U A24C C46A], for which the self-cleavage was 0.08.

Regarding GACAGAGCUCAACACAGCGUGGCAAAGUGGCUUUGGCCAAACUGCC [G2A G33U U38C G40A], the self-cleavage was determined as 0.12.

For the variant GACAGAGCACAACACAGCGUGGCAAAGUGGCUGUAACUAGACUUCC [G2A U9A G35A G36A G44U], the self-cleavage is 0.42.

Consider GACAGAGCUCAACACAUCGUGGCACAGUGGCUGUGGCUAGACUGCC [G2A G17U A25C], for which the self-cleavage stood at 0.12.

With GACAGAGCUCAACACAGCGUGGCAAAGUGGCUGUGUCUAGACUGCA [G2A G36U C46A], the self-cleavage amounted to 0.16.

Consider GACAGAGCUCAACACAGCAUGGCAAAGUGGGUGGGGCUAGACUGCC [G2A G19A C31G U34G], for which the self-cleavage worked out at 0.08.

Regarding GACAGAGCCCAACACGGCGUGGCAGAUUGGCUGUGGCUAGACUGCC [G2A U9C A16G A25G G27U], the self-cleavage was 0.02.

Turning to GACAGAGCUCAACACAGCGUGGCAAAGUCGCUGUGGCUAGGCUGCC [G2A G29C A41G], the self-cleavage was 0.14.

On to GACAGAGCACAACACAACGUGGCCAAGUGGCAGUGGCUAUACUGCC [G2A U9A G17A A24C U32A G40U], for which the self-cleavage is 0.45.

Consider GACAGAGCUCAACACAGCGGUGCAAAGGGGCUGUGGCUAGAAUGCC [G2A U20G G21U U28G C42A], for which the self-cleavage turned out to be 0.45.

Take GACAGAGCUCAACACAGCGUGGCAAAUUGGCUGUGGCUAGAAUGCC [G2A G27U C42A]: the self-cleavage was found to be 0.34.

Regarding GACAGAGCUCAACACAGCGUGGCAAAGUGGCUGUGGCUAGACUUCA [G2A G44U C46A], the self-cleavage came to 0.19.

In the case of GACAGAGCUCAACACAGCGCGGCCAAGUGGCUGUGGCUAGACUGCC [G2A U20C A24C], the self-cleavage amounted to 0.56.

With GACAGAGCCGAACACAGCGUGGUAAAGCGGCUGUGGCUAGACUGCC [G2A U9C C10G C23U U28C], the self-cleavage is 0.05.

Consider GACAGAGCUCAACACACGGUGGCAAACUGGCUGUGGCUAGACUGCC [G2A G17C C18G G27C], for which the self-cleavage came out at 0.07.

For the variant GACAGAGCUCAACACAGCAUGGCAAAGUGGCUGUGGCUAGCCUGCC [G2A G19A A41C], the self-cleavage is 0.09.

For the variant GACAGAGCUCAACACAUCGUGGCAAAGUGGCUGUGGCUAGCAUGCC [G2A G17U A41C C42A], the self-cleavage stood at 0.42.

Take GACAGAGCCCAACACAGCGUGGAAAAAUGGCUGUGGCUAGACUGCA [G2A U9C C23A G27A C46A]: the self-cleavage is 0.14.

For GACAGAGCUCAACACAGCGUUGCAAUGAGGCUGUGGCUAGACUGCC [G2A G21U A26U U28A], the self-cleavage was 0.19.

Take GACAGAGCCCAACACUACGUGGCAAAGUGGCUGUGGCUAGACUGCC [G2A U9C A16U G17A]: the self-cleavage amounted to 0.02.

As to GACAGAGCUCAACACACCGUGGCAGCGUGGCUGUGGCUAGACUGCC [G2A G17C A25G A26C], the self-cleavage is 0.03.

The values are drawn from the RNAGym collection of RNA variant scans (doi:10.7554/elife.90254).
